The structures appear in SMILES notation. The list shows a part of the results. Shown are side measurements of this screen, not its main read-out; they come without a call. For some assays here: The list favours compounds with an active or inconclusive main result. The note in brackets gives the kind of curve behind each potency; many fits are weak.

Experiment [1] in a line: qHTS drug screen for cell cycle checkpoint inhibitors in PARPi-resistant BRCA-mutant ovarian cancer cell lines. (AID 1963452). The note with it: PEO1/OlaR viability, CellTiter-Glo luminescence, 96 h. In a few lines: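 PEO1, PEO4 and PEO1/OlaR ovarian cancer cells, 600 per well, exposed 96 h at 37C to a dilution series. Viability read by CellTiter-Glo luminescence, normalized to DMSO and empty wells; activity summarized as Z-AUC.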
A general note: qHTS replaces the single test concentration by a dilution series.

The nature of experiment [2]: qHTS for identification of novel therapeutic agents for treatment of microphthalmiaassociated transcription factor (MiT) renal cell carcinoma (RCC) (AID 1963991). Particulars: CellTiter-Glo, 48 h; for z-score: stronger effect = lower value. In short, it runs like this:
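Viability of three TFE3-fusion renal carcinoma lines measured by CellTiter-Glo after 48 h treatment with each of 1912 compounds at 11 concentrations. Responses scaled between DMSO (100%) and empty wells (0%) before curve fitting.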

Where [3] appears, read: measured here: PEO1 parental viability.
[4] abbreviates: TFE3-RCC UOK109 viability, measured here: UOK109 Z-AUC.
Setting [5] is: TFE3-RCC viability, measured here: UOK124 Z-AUC.
The mark [6] stands for this setting: TFE3-RCC viability, measured here: UOK124 cell viability.
[7] abbreviates: TFE3-RCC viability, measured here: UOK145 Z-AUC.
Setting [8] is: TFE3-RCC viability, measured here: UOK145 cell viability.
Tags describe the fitted curve by direction and shape.

Turning to `Cn1c(Nc2ccc(C(F)(F)F)cc2)nc2cc(Oc3ccnc(-c4ncc(C(F)(F)F)[nH]4)c3)ccc21`, the AC50 in experiment [1] (setting [3]) was 6.92 µM [falling, partial curve]; in experiment [1] (measured here: PEO4 viability) it was 1.38 µM [falling, full curve]; in experiment [2] (setting [6]) it was 14.8 µM [falling, partial curve]; in experiment [2] (setting [8]) it was 1.32 µM [falling, full curve]. Besides, the z-score was -0.834 in experiment [2] (setting [4]), -0.0769 in experiment [2] (setting [5]) and -1.12 in experiment [2] (setting [7]).

For the compound `C=CC(=O)N1CCC[C@@H](n2nc(-c3ccc(Oc4ccccc4)cc3)c3c(N)ncnc32)C1`, the half-maximal activity concentration (AC50) in experiment [1] (setting [3]) is 19.5 µM [falling, partial curve]; in experiment [1] (measured here: PEO4 viability), 19.5 µM [falling, single point]; in experiment [2] (setting [6]), 23.5 µM [falling, partial curve]; in experiment [2] (setting [8]), 23.5 µM [falling, partial curve]. Moreover, the z-score in experiment [2] (setting [4]) is -1.04; in experiment [2] (setting [5]), -0.345; in experiment [2] (setting [7]), 0.486.

On to `COc1ccc(C(=O)CC2(O)C(=O)Nc3c(Cl)ccc(Cl)c32)cc1` (configuration not stated), for which the AC50 in experiment [1] (setting [3]) was 1.55 µM [falling, full curve]; in experiment [1] (measured here: PEO4 viability) it was 1.74 µM [falling, full curve]; in experiment [2] (setting [6]) it was 4.69 µM [falling, partial curve]; in experiment [2] (setting [8]), 2.35 µM [falling, full curve]. The z-score is 0.0233 in experiment [2] (setting [4]), -0.446 in experiment [2] (setting [5]) and 0.38 in experiment [2] (setting [7]).

For `Cn1cnc2c(F)c(Nc3ccc(Br)cc3Cl)c(C(=O)NOCCO)cc21`, the AC50 in experiment [1] (setting [3]) is 5.49 µM [falling, full curve]; in experiment [1] (measured here: PEO4 viability) it was 2.19 µM [falling, partial curve]; in experiment [2] (setting [6]) it was 0.00526 µM [falling, full curve]; in experiment [2] (setting [8]), 14.8 µM [falling, partial curve, poor fit]. Moreover, the results for the z-score in experiment [2] (setting [4]), in experiment [2] (setting [5]) and in experiment [2] (setting [7]) were -1.23, -0.188 and 0.65, respectively.

Turning to `CNC1CCC(N(Cc2cccc(-c3ccncc3)c2)C(=O)c2sc3c(F)ccc(F)c3c2Cl)CC1` (configuration not stated), the AC50 in experiment [1] (setting [3]) was 15.5 µM [falling, partial curve]; in experiment [1] (measured here: PEO4 viability) it was 12.3 µM [falling, partial curve]; in experiment [2] (setting [6]), 11.8 µM [falling, partial curve]; in experiment [2] (setting [8]), 18.7 µM [falling, partial curve]. Moreover, the z-score is -1.53 in experiment [2] (setting [4]), -0.268 in experiment [2] (setting [5]) and -0.544 in experiment [2] (setting [7]).

On to `Cc1c(C(=O)Nc2ccc(N3C[C@@H](C)O[C@@H](C)C3)nc2)cccc1-c1ccc(OC(F)(F)F)cc1`, for which the AC50 is 11 µM [falling, partial curve] in experiment [1] (setting [3]); 13.8 µM [falling, partial curve, poor fit] in experiment [1] (measured here: PEO4 viability); 18.7 µM [falling, partial curve] in experiment [2] (setting [6]); 13.2 µM [falling, partial curve] in experiment [2] (setting [8]). For the same compound, the z-score in experiment [2] (setting [4]) is -0.103; in experiment [2] (setting [5]), -0.0441; in experiment [2] (setting [7]), 0.167.

Consider `Cn1c(=O)n(-c2ccc(C(C)(C)C#N)cc2)c2c3cc(-c4cnc5ccccc5c4)ccc3ncc21`, for which the half-maximal activity concentration (AC50) is 0.0564 µM [falling, full curve] in experiment [1] (setting [3]); 0.0178 µM [falling, full curve] in experiment [1] (measured here: PEO4 viability); 0.0187 µM [falling, full curve] in experiment [2] (setting [6]); 0.0118 µM [falling, full curve] in experiment [2] (setting [8]). The figures for the z-score in experiment [2] (setting [4]), in experiment [2] (setting [5]) and in experiment [2] (setting [7]) were -1.11, -0.745 and -2.93, respectively.

For `O=c1cc(CN2CCOCC2)occ1OCCCCCSc1ccnc2cc(C(F)(F)F)ccc12`, the AC50 in experiment [1] (setting [3]) was 19.5 µM [falling, partial curve]; in experiment [1] (measured here: PEO4 viability), 27.5 µM [falling, single point]; in experiment [2] (setting [6]), 23.5 µM [falling, partial curve, poor fit]; in experiment [2] (setting [8]), 37.2 µM [falling, single point]. In addition, the z-score is 0.366 in experiment [2] (setting [4]), 1.44 in experiment [2] (setting [5]) and -0.735 in experiment [2] (setting [7]).

In the case of `COc1cc(C(=O)N2CCC(N3CCN(C)CC3)CC2)ccc1Nc1ncc2c(n1)N(C)c1ccccc1C(=O)N2C`, the AC50 is 5.49 µM [falling, partial curve] in experiment [1] (setting [3]); 0.549 µM [falling, full curve, poor fit] in experiment [1] (measured here: PEO4 viability); 7.43 µM [falling, partial curve] in experiment [2] (setting [6]); 16.6 µM [falling, partial curve] in experiment [2] (setting [8]). For the same compound, the values for the z-score in experiment [2] (setting [4]), in experiment [2] (setting [5]) and in experiment [2] (setting [7]) were -0.461, -0.685 and -0.55, respectively.

In the case of `Cc1cc(CN2CCN(c3c(Br)cnc4nc(-c5ccc(N6CCN(C)CC6)cc5)[nH]c34)CC2)no1`, the AC50 in experiment [1] (setting [3]) was 17.4 µM [falling, single point]; in experiment [1] (measured here: PEO4 viability), 15.5 µM [falling, partial curve]; in experiment [2] (setting [6]), 7.43 µM [falling, full curve]; in experiment [2] (setting [8]), 9.35 µM [falling, full curve]. For the same compound, the values for the z-score in experiment [2] (setting [4]), in experiment [2] (setting [5]) and in experiment [2] (setting [7]) were 0.338, -1.06 and -0.834, respectively.

Take `Cc1cnc(Nc2ccc(N3CCN(C)CC3)cc2)nc1Nc1cccc(S(=O)(=O)NC(C)(C)C)c1`: the AC50 is 4.36 µM [falling, full curve] in experiment [1] (setting [3]); 4.9 µM [falling, partial curve] in experiment [1] (measured here: PEO4 viability); 5.9 µM [falling, full curve] in experiment [2] (setting [6]); 14.8 µM [falling, partial curve] in experiment [2] (setting [8]). Further, the z-score in experiment [2] (setting [4]) is -0.76; in experiment [2] (setting [5]), -1.02; in experiment [2] (setting [7]) it was -0.127.

For orientation: AC50 means the midpoint of the concentration-response curve, whichever way the signal moves.

The values above are taken from PubChem BioAssay (NCATS).
